Laboratory results from PMC6919601, “Identification of Plasmodium dipeptidyl aminopeptidase allosteric inhibitors by high throughput screening” (PLoS ONE, 2019).
Out of some 110,000 compounds screened, about 230 (0.21%) showed an effect of 50% or more. The list shows a part of the results.

biological target: DPAP1 (Plasmodium falciparum, UniProt Q8IIJ9); experiment: primary screen, percent inhibition; read by cleavage of a fluorogenic dipeptide substrate; higher = more effect of the substance; design: species or system P. falciparum D10 trophozoite lysates; single well
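Also: 30 min substrate incubation versus DMSO and 10 µM JCP410 controls.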

Sequence of DPAP1 (Q8IIJ9 whole entry, looked up): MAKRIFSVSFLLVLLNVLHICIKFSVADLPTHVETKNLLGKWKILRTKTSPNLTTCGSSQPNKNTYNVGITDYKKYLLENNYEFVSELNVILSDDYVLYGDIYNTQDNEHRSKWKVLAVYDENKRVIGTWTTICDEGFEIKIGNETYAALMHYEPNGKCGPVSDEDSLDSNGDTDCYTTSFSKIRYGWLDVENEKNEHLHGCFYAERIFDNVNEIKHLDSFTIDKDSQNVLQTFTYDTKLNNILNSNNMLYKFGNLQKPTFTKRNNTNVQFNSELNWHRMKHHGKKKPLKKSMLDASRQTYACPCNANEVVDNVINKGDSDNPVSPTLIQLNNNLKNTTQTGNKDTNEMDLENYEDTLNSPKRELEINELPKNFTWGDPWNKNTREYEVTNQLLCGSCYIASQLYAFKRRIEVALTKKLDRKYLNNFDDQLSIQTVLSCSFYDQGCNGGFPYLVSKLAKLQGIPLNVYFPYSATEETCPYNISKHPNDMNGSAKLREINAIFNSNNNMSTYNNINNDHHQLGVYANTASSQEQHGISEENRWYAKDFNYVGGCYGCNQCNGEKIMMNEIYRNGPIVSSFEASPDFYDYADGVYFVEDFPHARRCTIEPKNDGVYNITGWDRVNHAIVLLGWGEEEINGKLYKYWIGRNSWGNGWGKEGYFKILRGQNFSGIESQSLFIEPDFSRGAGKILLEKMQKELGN

Row | SMILES | % Inhibition @ 10 uM
1 | Cc1cccc(OCc2nc(C#N)c(NC(C)c3ccccc3)o2)c1 (stereo not drawn) | 2.46%
2 | Cc1nnc(SCc2ccc(C(C)(C)C)cc2)nc1O | 3.25%
3 | Nc1c(C(=O)NCc2ccc3c(c2)OCO3)nnn1-c1ccc(OC(F)(F)F)cc1 | -3.28%
4 | CN1CCC(NCCc2cccc(Cl)c2)CC1 | 0.217%
5 | Cc1ccc(C2CC(C(F)(F)F)n3ncc(C(=O)N4CCC(C)CC4)c3N2)cc1 (stereo not drawn) | 11.4%
6 | CCOc1ccccc1-n1cc2c(c1-c1ccc(Cl)cc1)c(=O)n(C)c(=O)n2C | -10.9%
7 | COc1cc2c(cc1OC)C(C(=O)NCc1ccc(F)cc1Cl)C1c3ccccc3CCN1C2=O (stereo not drawn) | 1.08%
8 | Cc1noc2ncnc(N3CCN(C(=O)c4ccco4)CC3)c12 | -7.93%
9 | Cc1cc(O)nc(NCc2ccccc2)n1 | 3.53%
10 | COc1cc(C2C(C#N)=C(N)SC(N)=C2C#N)ccc1O | 28.3%
11 | C=CCOc1ccc(Cl)cc1/C=C(\C#N)c1nc2ccccc2[nH]1 | 0.779%
12 | COC(=O)C1=C(C)N=C2SCCC(=O)N2C1c1ccc(C(C)(C)C)cc1 (stereo not drawn) | -7.02%
13 | Cc1c(CN2CCc3ccccc3C2)c(=O)n(-c2ccccc2)n1C | -3.8%
14 | COc1ccc(C(=O)c2sc3nc4c(cc3c2N)N2CCC4CC2)cc1 | -5.17%
15 | Cc1nc2c(c(C)nn2C(C)(C)C)c(C)c1CCC(=O)NCCc1c[nH]c2ccccc12 | -4.24%
16 | CCN(CC)C(=O)c1nc(-c2ccc(Cl)cc2)n2c1CCCCC2 | 1.9%
17 | COc1ccccc1C(=O)N1CCN(c2cccc(C(F)(F)F)c2)CC1 | 0.163%
18 | Cc1ccc2c(=O)cc(C(=O)NC3CCS(=O)(=O)C3)oc2c1C (stereo not drawn) | -1.47%
19 | CN(CCCNS(=O)(=O)c1ccc2nc(O)ccc2c1)Cc1ccccc1 | 3.8%
20 | COc1ccc2cc(S(=O)(=O)c3ccc(F)cc3)c(=O)oc2c1 | 2.12%
21 | Cc1nc2c3cccnc3nn2c(C)c1CCC(=O)NCC1CCN(Cc2cccc(Cl)c2)CC1 | 6.22%
22 | C=CCN1C(=O)NC(=O)/C(=C\c2ccccc2Cl)C1=O | -7.88%
23 | CCN(CC)C(=O)c1sc(NC(=O)COc2ccc(C)cc2C)c(C#N)c1C | -4.65%
24 | COc1cccc(-c2csc(/C(C#N)=C/Nc3ccc(C(N)=O)cc3)n2)c1 | -1.37%

Row | SMILES | % Inhibition @ 10 uM
25 | Cc1cccc(CN2C(=O)N/C(=C/c3ccc(C)s3)C2=O)c1 | -12.5%
26 | Clc1cccc(N2CCN(Cc3ccc(-c4ccccc4)cc3)CC2)c1 | -5.41%
27 | Cc1c2cnn(CC(=O)N3CCN(Cc4ccccc4)CC3)c(=O)c2c(C)n1Cc1ccccc1 | -3.96%
28 | Cc1cccc2c1OCc1nc3ccccc3cc1C2=O | 4.94%
29 | CCOC(=O)N1CCc2c(sc3c2c(=O)n(Cc2ccccc2)c(=O)n3CC(=O)NC(C)CC)C1 (stereo not drawn) | 3.59%
30 | CC(=O)Nc1n[nH]c(-c2ccncc2)n1 | -7.39%
31 | CC(NC(=O)/C(=C\C=C\c1ccccc1)NC(=O)c1cccc(Br)c1)C(=O)O (stereo not drawn) | -2.87%
32 | COc1ccccc1N(CC(=O)N1CCC(C)CC1)S(=O)(=O)c1ccccc1 | -2.83%
33 | Cc1nn2c(O)c3c(nc2c1-c1ccc(Cl)cc1)CCC3 | -0.267%
34 | O=C(NCCCN1CCc2ccccc2C1)c1cc2c(s1)CS(=O)(=O)C2 | -1.85%
35 | C#CCOC(=O)CCC(=O)Nc1cccc2ccccc12 | -1.8%
36 | O=S1(=O)C(/C=N/c2ccccn2)=C(O)c2sccc2N1Cc1cccc(F)c1 | 4.44%
37 | COc1ccc(Cl)cc1/C=C(/C#N)C(=O)Nc1ccc(Cl)cc1 | 6.81%
38 | Cc1oc(-c2cccs2)nc1CSCC(=O)NCCc1ccc(Cl)cc1 | -4.71%
39 | COc1ccc(-c2cc3c(=O)n(CC(=O)NC4CCCc5ccccc54)ncn3n2)cc1 (stereo not drawn) | -3.08%
40 | CN1CCC(NC23CC4CC(CC(C4)C2)C3)CC1 | 3.68%
41 | CCN1CC=C(c2c[nH]c3ccccc23)CC1 | 4.79%
42 | COc1ccc(OC)c(C2CC(c3c(O)cc(C)oc3=O)=NCCS2)c1 (stereo not drawn) | 3.31%
43 | COc1ccc(-c2noc(CN(C(=O)/C=C/c3ccccc3)C(C)C)n2)cc1 | -4.03%
44 | Cc1cc(C)n(-c2ccc3cccc(O)c3n2)n1 | 1.9%
45 | C=CCNC(=O)c1ccccc1NC(=O)CSCc1ccc(C)cc1 | -10.2%
46 | CN(CCC#N)S(=O)(=O)c1ccc2ncc(C(=O)N(Cc3ccco3)CC3CCCO3)c(O)c2c1 (stereo not drawn) | -5.03%
47 | Cc1ccc(-c2nc3ccccc3nc2N2CCCCC2)cc1 | -2.87%
48 | COc1ccc([C@H]2[C@H](C(=O)OC)[C@H](c3ccc(OC)cc3)[C@H]2C(=O)OC)cc1 | -3.65%
